Entries after “also recorded” stand apart in the source; their conditions may differ. Not every detail of the peptide structures is certain; ends, links or a residue may be inferred. No end group written: not given here.
Assays:
[1] = target: T1, hGIPR (Homo sapiens, UniProt P48546); assay: hGIP1-42-induced cAMP accumulation with Schild plot analysis, COS-7 cells transiently transfected with hGIPR (Examples 4 and 8); assay type: cell-based; conditions: for Hill-slope of Schild plot / Ki: hGIP(1-42)-induced cAMP accumulation; for Hill-slope of Schild plot / Type of antagonism (Schild plot analysis) / Ki: COS-7 hGIPR; for Type of antagonism (Schild plot analysis): cAMP accumulation; for Ki: read-out: Ki (Schild plot X-intercept)
T1 construct: host or cells: COS-7 cells, transient transfection (calcium phosphate precipitation), pCMV-Script vector
T1 sequence (P48546 22-466): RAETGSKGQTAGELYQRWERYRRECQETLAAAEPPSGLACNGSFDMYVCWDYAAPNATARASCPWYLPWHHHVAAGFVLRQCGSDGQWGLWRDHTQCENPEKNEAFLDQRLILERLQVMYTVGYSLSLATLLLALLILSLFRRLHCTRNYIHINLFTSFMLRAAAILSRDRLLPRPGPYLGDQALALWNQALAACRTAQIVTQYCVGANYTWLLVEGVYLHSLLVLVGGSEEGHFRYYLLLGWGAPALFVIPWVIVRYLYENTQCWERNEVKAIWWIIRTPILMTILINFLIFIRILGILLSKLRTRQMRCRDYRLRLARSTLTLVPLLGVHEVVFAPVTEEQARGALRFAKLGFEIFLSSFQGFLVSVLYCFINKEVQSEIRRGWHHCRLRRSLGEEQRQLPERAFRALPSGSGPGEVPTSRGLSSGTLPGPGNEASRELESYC

[2] = system: perfused rat pancreata; assay: Somatostatin secretion from isolated perfused rat pancreas; conditions: 7 mM glucose; for Antagonism of hGIP1-42-induced somatostatin secretion: preincubation with 100 nM antagonist followed by 1 nM hGIP
Method: Non-fasted rats were anaesthetized with an IP injection of Hypnorm/Dormicum and the pancreas was dissected and perfused in situ. […] All other aortic branches were ligated. The venous effluent was collected for 1 min intervals via an obstructing cannula inserted into the portal vein, and stored at −20° C. until analysis. The flow rate was kept constant at 4 ml/min. The perfusion medium was continuously gassed with a 95% O2/5% CO2 mixture to achieve pH 7.4, and maintained at 37° C. during the entire experiment.
Pancreatic somatostatin concentrations in venous effluent were analysed by RIA. Somatostatin immunoreactivity was determined using antiserum 1758, which was raised in rabbits against synthetic cyclic somatostatin and recognizes both somatostatin-14 and somatostatin-28 [37, 38].

[3] = target: T1, hGIPR; assay: 125I-human GIP competition binding assay, COS-7 cells transiently transfected with hGIPR (Example 3); conditions: read-out: IC50, displacement of 125I-labeled hGIP (heterologous competition binding)
[4] = target: T2, human GIP receptor (Homo sapiens, UniProt P48546); assay: Competitive binding assay with 125I-labelled GIP radioligands, COS-7 cells transfected with human GIP receptor (Example 7); conditions: relative to GIP(1-30)NH2
T2 construct: host or cells: COS-7 cells, transient transfection (calcium phosphate precipitation), pCMV-Script vector
T2 sequence (P48546 22-466): T1 sequence (P48546 22-466)
Method: Transfection of COS-7 cells was performed using the calcium phosphate precipitation method with chloroquine addition as previously described (Kissow et al., 2012). […] Nonspecific binding was determined as the binding of radioligand to untransfected cells. All determinations were made in duplicates, and all experiments repeated at least three times. The samples were analyzed for radioactivity using a Wallac Wizard 1470 Gamma Counter (GMI Inc., Minnesota, USA). The number “n” refers to individual experiments with separate transfections although from same cell line. IC50, EC50, and Kd/Ki values were determined by nonlinear regression. […] Statistical analyses (unpaired t-tests) of two parameters were also performed with GraphPad Prism 6.0. The calculations of Bmax and Ki values were based on the formula for one class of binding sites in homologous competition binding studies and the Cheng Prussoffs formula, respectively (DeBlasi et al., 1989). Kd is the dissociation constant determined by homologous receptor binding. […] Schild plots were performed with log (DR-1) (ordinate) and log(antagonist concentration) (abscissa) to estimate the slopes and Ki values (Lazareno and Birdsall, 1993).

[5] = target: T2, human GIP receptor; assay: cAMP accumulation assay (agonism, antagonism, Schild analysis), COS-7 cells transfected with human GIP receptor (Example 7); assay type: cell-based
Method: COS-7 cells were grown in 10% CO2 and at 37° C. in Dulbecco's modified Eagle's medium 1885 supplemented with 10% fetal bovine serum, 2 mM glutamine, 180 units/ml penicillin, and 45 µg/ml streptomycin. Transfection of COS-7 cells was performed using the calcium phosphate precipitation method with chloroquine addition as previously described (Kissow et al., 2012).
Two days after transfection the cells were washed once with HEPES buffered saline (HBS) and incubated with HBS and 0.5 mM 3-isobutyl-1-methylxanthine (IBMX) for 30 minutes at 37° C. […] After ligand incubation, the HitHunter™ cAMP XS assay (an enzyme fragment complementation-based assay, DiscoveRx, Birmingham, United Kingdom) was carried out according to the manufacturer's instructions. All experiments were made in duplicates, and repeated at least three times. Luminescence was measured by Perkin Elmer™ EnVision 2104 Multilabled reader (Skovlunde, Danmark). In brief, the cells were lysed in the wells, the enzyme fragment-cAMP-antibody, an enzyme fragment and the enzyme substrates were added followed by 1 hour incubation at room temperature on shaker tray. The other enzyme fragment was added to the wells and incubated for 4 hours on shaker tray followed by measurements of luminescence. The ligand-induced cAMP competed with the binding of antibody to the first enzyme fragment and left the two fragments to fuse. The enzyme complex hydrolyzed the substrates and yielded luminescence. The number “n” refers to individual experiments with separate transfections although from same cell line.
IC50, EC50, and Kd/Ki values were determined by nonlinear regression. These, as well as maximal binding capacity (Bmax) values and Schild plot analysis were carried out with the GraphPad Prism 6.0 software (GraphPad, San Diego, Calif., USA) and Microsoft Excel™. Statistical analyses (unpaired t-tests) of two parameters were also performed with GraphPad Prism 6.0. […] Kd is the dissociation constant determined by homologous receptor binding. […]

Molecule | Hill-slope of Schild plot [1] | Ki [1] | IC50 [3] | further results
CC[C@H](C)[C@H](NC(=O)[C@H](CO)NC(=O)[C@H](Cc1ccc(O)cc1)NC(=O)[C@H](CC(=O)O)NC(=O)[C@H](CO)NC(=O)[C@@H](NC(=O)[C@H](Cc1ccccc1)NC(=O)[C@@H](NC(=O)CNC(=O)[C@@H](N)CCC(=O)O)[C@@H](C)O)[C@@H](C)CC)C(=O)N[C@@H](C)C(=O)N[C@@H](CCSC)C(=O)N[C@@H](CC(=O)O)C(=O)N[C@@H](CCCCN)C(=O)N[C@H](C(=O)N[C@@H](CCCNC(=N)N)C(=O)N[C@@H](CCC(N)=O)C(=O)N[C@@H](CCC(N)=O)C(=O)N[C@@H](CC(=O)O)C(=O)N[C@@H](Cc1ccccc1)C(=O)N[C@H](C(=O)N[C@@H](CC(N)=O)C(=O)N[C@@H](Cc1c[nH]c2ccccc12)C(=O)N[C@@H](CC(C)C)C(=O)N[C@@H](CC(C)C)C(=O)N[C@@H](C)C(=O)N[C@@H](CCC(N)=O)C(=O)N[C@@H](CCCNC(=N)N)C(N)=O)C(C)C)[C@@H](C)CC [GIP(3-30)H18R+K30R] | 0.7 |  |  | 
CC[C@H](C)[C@H](NC(=O)[C@H](CO)NC(=O)[C@H](Cc1ccc(O)cc1)NC(=O)[C@H](CC(=O)O)NC(=O)[C@H](CO)NC(=O)[C@@H](NC(=O)[C@H](Cc1ccccc1)NC(=O)[C@@H](NC(=O)CNC(=O)[C@@H](N)CCC(=O)O)[C@@H](C)O)[C@@H](C)CC)C(=O)N[C@@H](C)C(=O)N[C@@H](CCSC)C(=O)N[C@@H](CC(=O)O)C(=O)N[C@@H](CCCCN)C(=O)N[C@H](C(=O)N[C@@H](CCCNC(=N)N)C(=O)N[C@@H](CCC(N)=O)C(=O)N[C@@H](CCC(N)=O)C(=O)N[C@@H](CC(=O)O)C(=O)N[C@@H](Cc1ccccc1)C(=O)N[C@H](C(=O)N[C@@H](CC(N)=O)C(=O)N[C@@H](Cc1c[nH]c2ccccc12)C(=O)N[C@@H](CC(C)C)C(=O)N[C@@H](CC(C)C)C(=O)N[C@@H](C)C(=O)N[C@@H](CCC(N)=O)C(=O)N[C@@H](CCCCN)C(N)=O)C(C)C)[C@@H](C)CC [GIP(3-30)H18R] | 0.6 |  |  | Somatostatin secretion induced by the peptide alone ([2]; 1 nM hGIP or 100 nM GIP(3-30)): negligible response; Antagonism of hGIP1-42-induced somatostatin secretion [2]: attenuation of GIP induced somatostatin release; Type of antagonism (Schild plot analysis) [1]: competitive antagonism
CC[C@H](C)[C@H](NC(=O)[C@H](CCCCN)NC(=O)[C@H](CC(=O)O)NC(=O)[C@H](CCSC)NC(=O)[C@H](C)NC(=O)[C@@H](NC(=O)[C@H](CO)NC(=O)[C@H](Cc1ccc(O)cc1)NC(=O)[C@H](CC(=O)O)NC(=O)[C@H](CO)NC(=O)[C@@H](NC(=O)[C@H](Cc1ccccc1)NC(=O)[C@@H](NC(=O)CNC(=O)[C@@H](N)CCC(=O)O)[C@@H](C)O)[C@@H](C)CC)[C@@H](C)CC)C(=O)N[C@@H](C)C(=O)N[C@@H](CCC(N)=O)C(=O)N[C@@H](CCC(N)=O)C(=O)N[C@@H](CC(=O)O)C(=O)N[C@@H](Cc1ccccc1)C(=O)N[C@H](C(=O)N[C@@H](CC(N)=O)C(=O)N[C@@H](Cc1c[nH]c2ccccc12)C(=O)N[C@@H](CC(C)C)C(=O)N[C@@H](CC(C)C)C(=O)N[C@@H](C)C(=O)N[C@@H](CCC(N)=O)C(=O)N[C@@H](CCCCN)C(N)=O)C(C)C [hGIP(3-30)H18A] | 0.9 | 35 nM | 2 nM | 
CC[C@H](C)[C@H](NC(=O)[C@H](CO)NC(=O)[C@H](Cc1ccc(O)cc1)NC(=O)[C@H](CC(=O)O)NC(=O)[C@H](CO)NC(=O)[C@@H](NC(=O)[C@H](Cc1ccccc1)NC(=O)[C@@H](NC(=O)CNC(=O)[C@@H](N)CCC(=O)O)[C@@H](C)O)[C@@H](C)CC)C(=O)N[C@@H](C)C(=O)N[C@@H](CCSC)C(=O)N[C@@H](CC(=O)O)C(=O)N[C@@H](CCCCN)C(=O)N[C@H](C(=O)N[C@@H](Cc1c[nH]cn1)C(=O)N[C@@H](CCC(N)=O)C(=O)N[C@@H](CCC(N)=O)C(=O)N[C@@H](CC(=O)O)C(=O)N[C@@H](Cc1ccccc1)C(=O)N[C@H](C(=O)N[C@@H](CC(N)=O)C(=O)N[C@@H](Cc1c[nH]c2ccccc12)C(=O)N[C@@H](CC(C)C)C(=O)N[C@@H](CC(C)C)C(=O)N[C@@H](C)C(=O)N[C@@H](CCC(N)=O)C(=O)N[C@@H](CCCCN)C(N)=O)C(C)C)[C@@H](C)CC [hGIP(3-30)] | 1.1 |  | 16 nM | Antagonism of hGIP1-42-induced somatostatin secretion [2]: significantly reduced somatostatin release; also recorded: attenuation of GIP induced somatostatin release; Activation of hGIPR (cAMP accumulation) by the peptide alone ([1]; 35.000 COS-7 cells/well transfected with hGIPR, n=4): no GIP(3-30) induced activation; Type of antagonism (Schild plot analysis) [1]: competitive antagonist; Competitive binding fold (fold change of GIP(1-30)NH2 affinity) ([4]; radioligand 125I-GIP(1-42)): 2.6 fold; fold change GIP(1-30)NH2 ([4]; radioligand 125I-GIP(2-30)NH2): 1.6 fold; fold change GIP(1-30)NH2 ([4]; radioligand 125I-GIP(3-30)NH2): 2.0 fold; Type of antagonism (Schild analysis) [5]: pure competitive antagonists; Slope of Schild plot ([5]; GIP(1-42) dose-response curves with fixed antagonist concentrations): 0.93±0.02; Fold higher antagonistic potency than GIP(3-42) ([5]; inhibition of submaximal GIP(1-42) activation): 26 fold
EGTFISDYSIAMDAIAQQDFVNWLLAQK-NH2 (C-terminus assumed) [hGIP(3-30)K16AH18A] | 0.5 | 15 nM |  | 
EGTFISDYSIAMDKIKQQDFVNWLLAQK-NH2 (C-terminus assumed) [hGIP(3-30)H18K] | 0.6 | 37 nM | 7.8 nM | 
EGTFISDYSIAMEKIAQQDFVNWLLAQK-NH2 (C-terminus assumed) [hGIP(3-30)D15EH18A] | 0.7 | 7.9 nM |  | 
